Assay results reported in the supplement of paper PMC9446081.
The campaign covered roughly 39,000 compounds. About 220 (0.56%) showed activity. The list shows a part of the results.

Test system: Escherichia coli K-12 BW25113
Assay: relative growth (OD600 normalised to plate interquartile mean) (fraction); higher = less growth inhibition, active = 0.2 or less
Settings: 50 µM; LB; incubation time: overnight (16-24 h)
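Note: static incubation at 37 °C against the wild-type strain, values averaged over two biological replicates.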

SMILES	relative growth
COc1ccc(S(=O)(=O)N(C)C[C@H]2OCCCC[C@H](C)Oc3ccc(NC(=O)c4ccccc4)cc3C(=O)N([C@H](C)CO)C[C@@H]2C)cc1	inactive: 1.01
CN(C)CC(c1ccc(O)cc1)C1(O)CCCCC1.O=C(O)CCC(=O)O (centres undefined)	inactive: 1.14
CC(=O)N[C@@H](CC(=O)O)C(=O)N[C@@H](CCC(=O)O)C(=O)O	inactive: 0.997
C[C@@H]1CN([C@H](C)CO)C(=O)c2cc(NC(=O)NC3CCCCC3)ccc2O[C@@H](C)CCCCO[C@@H]1CN(C)S(=O)(=O)c1ccc(Cl)cc1	inactive: 1.01
O=C(CCCCCC(=O)N/N=C/[C@H](O)[C@@H](O)[C@@H](O)[C@H](O)CO)NO	inactive: 1.04
C[C@@H]1CN([C@@H](C)CO)C(=O)c2cccc(NC(=O)C3CCCCC3)c2O[C@@H]1CN(C)S(=O)(=O)c1cn(C)cn1	inactive: 1.03
C[C@@H]1CN([C@@H](C)CO)C(=O)c2cc(NS(C)(=O)=O)ccc2O[C@H]1CN(C)C(=O)Nc1ccc(F)cc1	inactive: 1
COc1ccc(NC(=O)Nc2ccc3c(c2)CC(=O)N([C@H](C)CO)C[C@@H](C)[C@@H](CN(C)S(C)(=O)=O)O3)cc1	inactive: 0.992
O=C1CN(S(=O)(=O)Cc2ccccc2)C[C@@H]2[C@H](c3ccc(C#Cc4cccc(F)c4)cc3)[C@@H](CO)N12	inactive: 0.987
C[C@@H]1CN([C@@H](C)CO)C(=O)c2c(c3ccccc3n2C)-c2ccccc2CO[C@@H]1CN(C)Cc1cccc(C(F)(F)F)c1	inactive: 1
Cc1cc(NC(=O)C2=C(O)c3ccccc3S(=O)(=O)N2C)no1	inactive: 1.04
Cc1noc(C)c1NC(=O)Nc1cccc2c1O[C@@H](CN(C)S(C)(=O)=O)[C@@H](C)CN([C@H](C)CO)C2=O	inactive: 1
CO[C@@H]1CN(C)C(=O)c2cc(NC(=O)Nc3ccccc3F)ccc2OC[C@@H](C)N(Cc2ccccc2C(=O)O)C[C@@H]1C	inactive: 0.992
CC(=O)OCC1=C(C(=O)[O-])N2C(=O)C(NC(=O)CSc3ccncc3)C2SC1.[Na+] (centres undefined)	inactive: 0.797
COc1cccc(-c2cnc3c(c2)C(=O)N([C@H](C)CO)C[C@H](C)[C@H](CN(C)Cc2cccc(C(F)(F)F)c2)O3)c1	inactive: 1.01
Cc1noc(C)c1S(=O)(=O)N(C)C[C@H]1Oc2ccc(N(C)C)cc2CC(=O)N([C@@H](C)CO)C[C@H]1C	inactive: 0.974
CCCN(C)C[C@@H]1OCCCC[C@@H](C)Oc2ccc(NC(=O)C3CCCCC3)cc2C(=O)N([C@H](C)CO)C[C@@H]1C	inactive: 1.02
O=C(C[C@H]1CC[C@H]2[C@@H](COC[C@H](O)CN2C(=O)Nc2ccc(Cl)c(Cl)c2)O1)NCc1ccc(Cl)c(Cl)c1	inactive: 0.985
C[C@@H]1CN([C@@H](C)CO)C(=O)c2cc(NC(=O)Nc3cccc4ccccc34)ccc2O[C@@H](C)CCCCO[C@H]1CN(C)C(=O)Nc1cccc2ccccc12	inactive: 1.04
COc1ccccc1CNC(=O)C[C@H]1CC[C@H]2[C@@H](COC[C@@H](O)CN2C(=O)Nc2ccc(Cl)cc2)O1	inactive: 0.973

SMILES	relative growth
CCCC(=O)Nc1ccc2c(c1)C(=O)N(C)C[C@@H](OC)[C@H](C)CN(Cc1ccc(-c3ccccn3)cc1)[C@H](C)CO2	inactive: 1.01
COc1cccc(-c2ccc3c(c2)O[C@@H](CN(C)C(=O)C2CCOCC2)[C@H](C)CN([C@H](C)CO)S3(=O)=O)c1	inactive: 1
CCCCCCc1nc(CCCc2cc3c(c(CCCCCC)n2)[Si](C(C)C)(C(C)C)O[C@H]3c2ccccc2)cc2c1[Si](C(C)C)(C(C)C)O[C@H]2c1ccccc1	inactive: 1.03
C[C@H](CO)N1C[C@H](C)[C@H](CN(C)C(=O)Nc2ccccc2)Oc2c(NC(=O)Nc3ccc(C(F)(F)F)cc3)cccc2C1=O	inactive: 1.01
O=C(C[C@@H]1CC[C@@H]2[C@H](COC[C@H](O)CN2C(=O)CCN2CCCCC2)O1)NCCCN1CCOCC1	inactive: 1.01
Cc1ccc(S[C@]2(C(=O)NC3CC3)CC(=O)N(Cc3cc(C(F)(F)F)cc(C(F)(F)F)c3)[C@@H]2c2ccc(CO)cc2I)cc1	inactive: 0.975
C[C@@H]1CCCCO[C@@H](CN(C)C(=O)CCC(F)(F)F)[C@@H](C)CN([C@H](C)CO)C(=O)c2cc(NC(=O)C3CCCCC3)ccc2O1	inactive: 1.01
C[C@@H]1CN([C@@H](C)CO)S(=O)(=O)c2ccc(C#CC3(O)CCCC3)cc2O[C@@H]1CN(C)C(=O)c1ccncc1	inactive: 0.993
C[C@@H]1CCCCO[C@H](CN(C)Cc2ccc(C(F)(F)F)cc2)[C@H](C)CN([C@@H](C)CO)C(=O)c2cc(N(C)C)ccc2O1	inactive: 0.959
C[C@H](CO)N1C[C@H](C)[C@H](CN(C)S(=O)(=O)c2cn(C)cn2)Oc2ccc(NS(=O)(=O)c3ccc(Cl)cc3)cc2CC1=O	inactive: 0.992
C[C@H](CO)N1C[C@H](C)[C@@H](CN(C)C(=O)Nc2ccc(C(F)(F)F)cc2)OCCCC[C@H](C)Oc2ccc(NC(=O)Nc3ccccc3)cc2C1=O	inactive: 0.996
COc1ccc(NC(=O)Nc2ccc3c(c2)C(=O)N([C@H](C)CO)C[C@@H](C)[C@H](CN(C)CC2CC2)OCCCC[C@H](C)O3)cc1	inactive: 0.935
C[C@@H]1CN([C@@H](C)CO)C(=O)c2cc(NS(=O)(=O)c3ccccc3)ccc2O[C@H]1CN(C)S(=O)(=O)c1ccccc1	inactive: 1
C[C@@H]1CCCCO[C@@H](CN(C)C(=O)Nc2ccccc2)[C@@H](C)CN([C@@H](C)CO)C(=O)c2cc(NS(=O)(=O)c3ccc(F)cc3)ccc2O1	inactive: 1.02
COCC(=O)N(C)C[C@@H]1Oc2cc(C#Cc3cccnc3)ccc2S(=O)(=O)N([C@H](C)CO)C[C@@H]1C	inactive: 0.977
C[C@@H]1CN([C@H](C)CO)C(=O)c2cccc(NC(=O)Nc3cccc4ccccc34)c2O[C@H]1CN(C)S(=O)(=O)c1ccc(Cl)cc1	inactive: 0.989
Cc1cc(C)c2c(c1)NC(=O)C[C@H]2c1cccc(Cl)c1Cl	inactive: 1.03
Nc1ccc(O)c(C(=O)O)c1	inactive: 1.01
COc1ccc(cc1)CN1C[C@]2(CCN(CC2)C(=O)Nc2cccc(c2)F)c2c([nH]c3cc(ccc23)OC)[C@@H]1CO	inactive: 1.03
C[C@@H]1CN([C@@H](C)CO)C(=O)c2cc(NC(=O)Cc3ccccc3)ccc2O[C@H]1CN(C)S(C)(=O)=O	inactive: 0.987

SMILES	relative growth
C/C=C/c1ccc2c(c1)O[C@H](CN(C)C(=O)c1ccc3c(c1)OCO3)[C@H](C)CN([C@@H](C)CO)S2(=O)=O	inactive: 1.02
C[C@H](CO)N1C[C@H](C)[C@@H](CN(C)Cc2ccccc2)Oc2ccc(NC(=O)CCN3CCOCC3)cc2C1=O	inactive: 1.01
COc1ccc(S(=O)(=O)N[C@H]2C=C[C@@H](CC(=O)NCCc3ccncc3)O[C@@H]2CO)cc1	inactive: 1.03
C[C@@H]1CCN(C(=O)[C@H](CCCNC(=N)N)NS(=O)(=O)c2cccc3c2NC[C@H](C)C3)[C@@H](C(=O)O)C1	inactive: 1
Cc1noc(C)c1NC(=O)Nc1ccc2c(c1)C(=O)N([C@@H](C)CO)C[C@@H](C)[C@@H](CN(C)C(=O)Nc1c(C)noc1C)OCCCC[C@@H](C)O2	inactive: 1
O=C(C[C@@H]1CC=CCC[C@@H](Cc2ccc(F)cc2)C(=O)OC[C@H](Cc2c[nH]c3ccccc23)NC1=O)N[C@H](CO)Cc1ccccc1	inactive: 1.01
C[C@H](CO)N1C[C@H](C)[C@@H](CN(C)C(=O)c2ccc3c(c2)OCO3)Oc2ncc(C3=CCCC3)cc2C1=O	inactive: 1.01
c1ccc(CCNc2ccnc3cc4ccccc4cc23)cc1	inactive: 0.946
NCCCCC(NC(CCc1ccccc1)C(=O)O)C(=O)N1CCCC1C(=O)O (centres undefined)	inactive: 1.06
CC1CCC2(OC1)OC1CC3C4CCC5CC(O)CCC5(C)C4CC(=O)C3(C)C1C2C (centres undefined)	inactive: 0.913
CC(C)NC(=O)N(C)C[C@@H]1Oc2ccc(NC(=O)Cn3cnnn3)cc2CC(=O)N([C@@H](C)CO)C[C@@H]1C	inactive: 0.994
C[C@H](CO)N1C[C@H](C)[C@H](CN(C)C(=O)Nc2cccc3ccccc23)Oc2ccc(NC(=O)Cc3ccccc3)cc2C1=O	inactive: 0.971
COCC(=O)Nc1ccc2c(c1)C(=O)N(C)[C@H]1CC[C@H](CC(=O)NC3Cc4ccccc4C3)O[C@H]1CO2	inactive: 1
C[C@@H]1CN([C@H](C)CO)S(=O)(=O)c2ccc(C#CC3(O)CCCC3)cc2O[C@H]1CN(C)C(=O)Nc1cccc(F)c1	inactive: 1
COc1ccc(CN(C)C[C@@H]2OCCCC[C@@H](C)Oc3ccc(NC(=O)Nc4ccc(C(F)(F)F)cc4)cc3C(=O)N([C@@H](C)CO)C[C@H]2C)cc1	inactive: 0.948
COc1ccc(NC(=O)N(C)C[C@H]2OCCCC[C@@H](C)Oc3ccc(NC(=O)Cc4ccccc4)cc3C(=O)N([C@@H](C)CO)C[C@H]2C)cc1	inactive: 0.988
CCCCc1ccc(S(=O)(=O)Nc2nccnc2-c2ccc(COc3cc(CC)nc4ccccc34)cc2)cc1	inactive: 1
C[C@@H]1CN([C@@H](C)CO)C(=O)Cc2cc(NC(=O)Cc3ccccc3)ccc2O[C@H]1CN(C)C(=O)Nc1ccc(C(F)(F)F)cc1	inactive: 0.976
Cc1ccc(S(=O)(=O)Nc2ccc3c(c2)C(=O)N([C@H](C)CO)C[C@H](C)[C@H](CN(C)Cc2ccc(C(F)(F)F)cc2)OCCCC[C@H](C)O3)cc1	inactive: 0.94
